Results on three molecules are retold here after paper PMC7343241.

The chains behind the UniProt entries cited, without tags or fusion partners. Where a name states a change or a piece, a line headed by the entry shows the natural chain unless it says otherwise. A line that says so, or that is headed by a name, gives the form on record, which may keep a tag or linker.
UniProt Q8TDI8: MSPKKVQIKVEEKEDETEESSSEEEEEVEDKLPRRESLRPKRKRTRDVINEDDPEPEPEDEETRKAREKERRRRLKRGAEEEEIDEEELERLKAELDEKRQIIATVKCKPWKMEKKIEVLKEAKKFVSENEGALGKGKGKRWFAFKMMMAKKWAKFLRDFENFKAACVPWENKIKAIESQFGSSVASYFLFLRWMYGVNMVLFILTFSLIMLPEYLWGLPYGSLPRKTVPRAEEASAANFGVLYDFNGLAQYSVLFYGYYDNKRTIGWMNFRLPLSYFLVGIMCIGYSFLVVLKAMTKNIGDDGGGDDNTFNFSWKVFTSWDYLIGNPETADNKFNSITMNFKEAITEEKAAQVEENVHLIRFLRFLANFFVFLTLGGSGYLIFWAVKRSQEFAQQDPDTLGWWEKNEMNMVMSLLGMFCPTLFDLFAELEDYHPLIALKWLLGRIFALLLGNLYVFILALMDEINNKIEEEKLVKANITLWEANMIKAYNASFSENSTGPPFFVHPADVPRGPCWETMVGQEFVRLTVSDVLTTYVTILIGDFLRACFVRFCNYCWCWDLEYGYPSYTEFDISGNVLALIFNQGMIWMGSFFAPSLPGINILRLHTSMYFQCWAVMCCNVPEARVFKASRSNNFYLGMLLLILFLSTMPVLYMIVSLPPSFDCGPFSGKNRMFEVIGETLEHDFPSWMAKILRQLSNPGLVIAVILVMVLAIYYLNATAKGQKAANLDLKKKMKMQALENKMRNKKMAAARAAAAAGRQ
human TMC1 Δ77–86 (FRET, CHO-K1 cells) (Q8TDI8, form named): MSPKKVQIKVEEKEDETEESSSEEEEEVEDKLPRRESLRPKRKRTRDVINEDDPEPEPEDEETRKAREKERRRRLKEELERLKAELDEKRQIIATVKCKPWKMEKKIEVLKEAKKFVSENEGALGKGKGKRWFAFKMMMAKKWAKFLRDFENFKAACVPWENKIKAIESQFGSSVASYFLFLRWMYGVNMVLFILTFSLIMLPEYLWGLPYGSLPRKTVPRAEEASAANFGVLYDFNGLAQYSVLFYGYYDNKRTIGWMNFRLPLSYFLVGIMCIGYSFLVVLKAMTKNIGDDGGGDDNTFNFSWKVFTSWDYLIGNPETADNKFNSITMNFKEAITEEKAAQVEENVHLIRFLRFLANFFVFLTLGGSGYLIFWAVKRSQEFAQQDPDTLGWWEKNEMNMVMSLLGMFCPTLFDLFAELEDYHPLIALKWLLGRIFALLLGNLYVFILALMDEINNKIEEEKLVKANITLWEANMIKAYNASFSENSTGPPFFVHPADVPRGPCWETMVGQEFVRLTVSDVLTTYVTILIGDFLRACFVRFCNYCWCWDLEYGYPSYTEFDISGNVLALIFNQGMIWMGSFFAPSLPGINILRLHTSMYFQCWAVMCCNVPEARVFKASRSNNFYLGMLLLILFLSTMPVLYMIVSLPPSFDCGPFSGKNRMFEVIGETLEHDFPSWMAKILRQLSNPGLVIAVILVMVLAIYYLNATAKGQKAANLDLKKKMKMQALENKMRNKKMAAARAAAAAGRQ

Results are given in words; binding and its absence hold for the method and conditions named. In cells and extracts the contact can be indirect. Some results given as binding are weak or reduced against the parent protein; the word gives no strength.

Holding throughout (experiment): FRET or BRET; acceptor photobleaching FRET in transfected, fixed and immunostained CHO-K1 cells; donor EGFP, acceptor Alexa Fluor 555
A general note: In BRET a luciferase serves as donor, and the signal depends on an acceptor being close.

Assay [1] has as its target human TMC1 (FRET, CHO-K1 cells) (human) (UniProt Q8TDI8).
Assay [2] concerns the target human TMC1 Δ77–86 (FRET, CHO-K1 cells) (human) (UniProt Q8TDI8).
For assay [3], the target named is T1, human TMC2 (FRET, CHO-K1 cells) (human) (UniProt Q8TDI7).
T1 sequence: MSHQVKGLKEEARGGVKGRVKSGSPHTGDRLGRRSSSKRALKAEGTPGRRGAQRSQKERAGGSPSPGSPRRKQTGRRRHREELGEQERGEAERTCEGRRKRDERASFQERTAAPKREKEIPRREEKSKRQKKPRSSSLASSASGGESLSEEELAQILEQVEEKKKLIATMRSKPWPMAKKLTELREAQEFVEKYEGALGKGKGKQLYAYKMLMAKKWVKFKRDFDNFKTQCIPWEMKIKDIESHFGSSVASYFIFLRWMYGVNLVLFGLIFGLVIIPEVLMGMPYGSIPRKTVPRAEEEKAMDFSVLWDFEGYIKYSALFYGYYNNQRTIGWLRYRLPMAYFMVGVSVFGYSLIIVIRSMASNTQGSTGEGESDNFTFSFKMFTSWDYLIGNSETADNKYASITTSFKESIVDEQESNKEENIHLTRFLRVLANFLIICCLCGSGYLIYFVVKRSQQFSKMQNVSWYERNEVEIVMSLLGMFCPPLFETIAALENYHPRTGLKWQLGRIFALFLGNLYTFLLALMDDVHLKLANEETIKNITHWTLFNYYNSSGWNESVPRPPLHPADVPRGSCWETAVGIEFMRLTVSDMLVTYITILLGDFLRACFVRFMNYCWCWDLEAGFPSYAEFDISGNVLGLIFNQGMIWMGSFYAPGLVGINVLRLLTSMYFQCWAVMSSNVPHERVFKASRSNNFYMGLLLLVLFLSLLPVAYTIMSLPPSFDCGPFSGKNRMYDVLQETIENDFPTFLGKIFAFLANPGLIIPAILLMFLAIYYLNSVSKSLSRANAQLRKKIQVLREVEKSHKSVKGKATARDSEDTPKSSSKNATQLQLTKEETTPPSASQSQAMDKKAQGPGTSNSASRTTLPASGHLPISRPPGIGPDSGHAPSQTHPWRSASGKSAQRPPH

B1: human CIB3 (FRET, CHO-K1 cells) (protein, UniProt Q96Q77 1-187)
chain: MGNKQTVFTHEQLEAYQDCTFFTRKEIMRLFYRYQDLAPQLVPLDYTTCPDVKVPYELIGSMPELKDNPFRQRIAQVFSEDGDGHMTLDNFLDMFSVMSEMAPRDLKAYYAFKIYDFNNDDYICAWDLEQTVTKLTRGGLSAEEVSLVCEKVLDEADGDHDGRLSLEDFQNMILRAPDFLSTFHIRI
For the molecule B1, the binding entry in assay [1], in assay [2] and in assay [3] was “binds” each time.

B2: human CIB4 (FRET, CHO-K1 cells) (protein, UniProt A0PJX0 1-185)
chain: MGQCLRYQMHWEDLEEYQALTFLTRNEILCIHDTFLKLCPPGKYYKEATLTMDQVSSLPALRVNPFRDRICRVFSHKGMFSFEDVLGMASVFSEQACPSLKIEYAFRIYDFNENGFIDEEDLQRIILRLLNSDDMSEDLLMDLTNHVLSESDLDNDNMLSFSEFEHAMAKSPDFMNSFRIHFWGC
On to B2, for which the binding entry in assay [1] and in assay [3] was “no binding” throughout.

B3: human CIB1 (FRET, CHO-K1 cells) (protein, UniProt Q99828 1-191)
chain: MGGSGSRLSKELLAEYQDLTFLTKQEILLAHRRFCELLPQEQRSVESSLRAQVPFEQILSLPELKANPFKERICRVFSTSPAKDSLSFEDFLDLLSVFSDTATPDIKSHYAFRIFDFDDDGTLNREDLSRLVNCLTGEGEDTRLSASEMKQLIDNILEESDIDRDGTINLSEFQHVISRSPDFASSFKIVL
Consider B3, for which the binding result in assay [1] and in assay [3] was “no binding” in each case.
